Test results taken from PubChem BioAssay AID488969 (Vanderbilt High Throughput Screening Facility, 2010).
Over roughly 110,000 compounds, “z-score” has its median near -0.1; the highest 2% begin near 2. Some of the results follow.

What follows are compounds tested against Metabotropic glutamate receptor 8 (Rattus norvegicus) (UniProt P70579) (assay: mGluR8 Gi/Go-coupled signaling modulation – cell-based, rat, thallium flux, HTS, primary screen (AID 488969)). Settings: HEK293 rat mGluR8, GIRK (G protein-gated inwardly rectifying potassium channel) thallium flux, FluoZin2; at 10 µM; stronger effect = higher value; submaximal glutamate (EC20) added with thallium.
UniProt P70579, sequence (P70579 whole entry, looked up): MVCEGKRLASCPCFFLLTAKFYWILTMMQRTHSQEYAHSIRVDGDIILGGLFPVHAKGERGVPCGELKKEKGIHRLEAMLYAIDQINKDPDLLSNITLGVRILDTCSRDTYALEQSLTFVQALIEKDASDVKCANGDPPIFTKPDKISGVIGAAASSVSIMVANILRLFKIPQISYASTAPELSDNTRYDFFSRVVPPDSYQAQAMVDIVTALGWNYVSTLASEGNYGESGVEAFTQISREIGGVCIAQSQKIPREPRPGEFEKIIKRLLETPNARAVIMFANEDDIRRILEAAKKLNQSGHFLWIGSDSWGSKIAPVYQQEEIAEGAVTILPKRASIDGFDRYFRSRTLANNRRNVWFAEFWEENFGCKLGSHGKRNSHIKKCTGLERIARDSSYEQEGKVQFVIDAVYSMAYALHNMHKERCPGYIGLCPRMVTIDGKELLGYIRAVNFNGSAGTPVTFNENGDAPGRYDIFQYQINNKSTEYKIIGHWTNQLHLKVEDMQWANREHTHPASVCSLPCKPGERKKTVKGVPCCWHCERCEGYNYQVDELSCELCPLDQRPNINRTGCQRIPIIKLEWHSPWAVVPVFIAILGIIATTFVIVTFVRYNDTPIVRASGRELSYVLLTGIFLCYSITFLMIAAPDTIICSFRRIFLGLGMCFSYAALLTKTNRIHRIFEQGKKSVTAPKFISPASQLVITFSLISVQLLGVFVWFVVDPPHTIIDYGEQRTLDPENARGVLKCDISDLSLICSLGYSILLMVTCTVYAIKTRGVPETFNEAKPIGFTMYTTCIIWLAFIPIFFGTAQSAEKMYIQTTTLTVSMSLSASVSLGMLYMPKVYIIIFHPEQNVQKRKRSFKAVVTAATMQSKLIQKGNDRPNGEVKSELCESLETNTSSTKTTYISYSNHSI

| SMILES | z-score |
| --- | --- |
| Cc1ccc(CNC(=O)COc2ccccc2-c2ccccc2)cc1 | -0.0564 |
| O=C1Nc2ccccc2/C1=N\N=C\C1=C(N2CCOCC2)C(=C\c2ccccc2)/CC1 | 0.199 |
| O=C(CCCN1C(=O)c2cccc3cccc(c23)C1=O)N1CCN(c2ccccc2)CC1 | -0.201 |
| CC1=NC(Nc2nc(C)c3ccccc3n2)=NC(C)(C)C1 | 0.113 |
| Cc1ccc(S(=O)(=O)Oc2ccc(/C=N/NC(=O)c3nn(C)cc3[N+](=O)[O-])cc2)cc1 | -0.351 |
| COc1ccc(NC(=S)Nc2ccccn2)c(OC)c1 | 0.235 |
| O=C(Nc1ccc(CN2CCOCC2)cc1)c1ccc(-c2ccc(Br)cc2)o1 | -0.0297 |
| COC(=O)C1=CN(CC2CCCO2)C=C(C(=O)OC)C1c1ccccc1C(F)(F)F (centres undefined) | 0.236 |
| CN(C)C(=O)C(=O)c1cccn1-c1ccccc1C#N | 0.429 |
| COCCNC(=S)NCCCNc1nc2cc3c(cc2cc1C#N)OCO3 | -0.317 |
| COC(=O)c1ccc(NC(=O)CCn2c(=O)oc3ccccc32)cc1 | 2.57 |
| CCOC(=O)C1=C(C)NC(=O)NC1c1cc(Br)c(O)c(OC)c1 (centres undefined) | -0.262 |
| CCOc1cc(/C=N/NC(=O)OC)ccc1OCCSc1ccc(Cl)cc1 | 0.0465 |
| CS(=O)(=O)c1ccc2c(c1)SC1=NC(=O)/C(=C/c3ccco3)C(=N)N12 | -0.0252 |
| N#Cc1cnn(Cc2ccc(Cl)cc2)c1N | 0.669 |
| CCOC(=O)CN(Cc1ccc(OC)c(OC)c1)S(=O)(=O)c1ccc(OC)cc1 | 0.0846 |
| CC(=O)c1c(C)[nH]c(C(=O)N2CCc3ccccc32)c1C | 0.662 |
| CCN(CC)c1nc(N2CCOCC2)c(C#N)c2c1CN(C)CC2 | -0.189 |
| CC1=NNC(=O)C1CCC(=O)N/N=C/C(Br)=C/c1ccccc1 (centres undefined) | -0.0952 |
| COc1cc(NC(=O)CSc2nc(C)cs2)cc(OC)c1 | -0.213 |
| O=C(COc1ccc(Cl)cc1)NNC(=O)C(=O)N1CCCCC1 | -0.105 |
| CCOC(=O)C(NC(=O)c1cccc(Cl)c1)(Nc1sc2c(c1C(N)=O)CCC2)C(F)(F)F (centres undefined) | -0.276 |
| COc1ccccc1NC(=S)N(Cc1ccco1)Cc1cc2ccc(C)c(C)c2[nH]c1=O | -0.13 |
| CCOc1ccc(NC(=O)CN2C(=O)C3CCCN3C2=O)cc1 (centres undefined) | 0.237 |
| CCCNC(=O)Cn1cnc2sc(C(=O)Nc3ccc4c(c3)OCO4)c(C)c2c1=O | -0.367 |
| CCOC(=O)C1CCCN(c2ccc(NC(=O)c3snc4c(=O)[nH]c(C)nc34)cc2)C1 (centres undefined) | 0.0878 |
| O=C(CC12CC3CC(CC(C3)C1)C2)N1CCCOC1 | -0.19 |

| SMILES | z-score |
| --- | --- |
| COc1ccc(C(=O)CSc2nnc(Cn3nnc4ccccc43)n2C)cc1 | -0.0199 |
| O=S(=O)(NCc1cccnc1)c1ccc(Cl)nc1 | 1.05 |
| O=C(CCn1c(=O)c2ccccc2n(Cc2ccccc2)c1=O)NCc1ccc2c(c1)OCO2 | -0.0589 |
| Cc1cc(C(=O)N/N=C/c2cc([N+](=O)[O-])ccc2O)c2ccccc2n1 | -0.102 |
| O=C(CSc1nc2cc(Cl)ccc2c(=O)n1Cc1ccco1)Nc1ccc(S(=O)(=O)N2CCOCC2)cc1 | 2.05 |
| N#CCCN(Cc1ccccc1)C(=S)Nc1ccccc1 | -0.262 |
| CCOC(=O)C(C)n1nc(C)c2sc3ccccc3c2c1=O (centres undefined) | -0.322 |
| O=C(Nc1ccc(Cc2ccncc2)cc1)c1cccc([N+](=O)[O-])c1 | -0.303 |
| N#Cc1ccccc1Sc1ccccc1C(=O)OCC(=O)NC12CC3CC(CC(C3)C1)C2 | -0.129 |
| COc1ccc(NC(=S)N2CCN(c3ccccn3)CC2)cc1OC | 1.41 |
| OC(CNCC1CCCO1)COc1ccc(OCC(O)CNCC2CCCO2)cc1 (centres undefined) | -0.457 |
| CC(=O)Nc1ccc(OC(F)(F)C(F)F)c(NC(C)=O)c1 | 0.435 |
| COc1ccc(C(=S)N2CCOCC2)cc1OC(=O)c1cc([N+](=O)[O-])c(C)c([N+](=O)[O-])c1 | 0.476 |
| CC1CCCCN1Cc1ccc(-c2nnn(CC(=O)NC3CCCCC3)n2)cc1 (centres undefined) | 0.57 |
| CCOC(=O)c1cccc(NC(=O)CSc2nnc(-c3ccoc3C)n2CCOC)c1 | -2.88 |
| O=C(NC(=S)NNC(=O)c1ccccc1[N+](=O)[O-])c1ccccc1 | -0.00864 |
| Cc1cc2ccccn2c1C(=S)NC(=O)c1ccccc1 | -0.81 |
| CN1C(=O)c2ccccc2C(C(=O)NCc2ccco2)C1c1c[nH]c2ccccc12 (centres undefined) | -1 |
| CCc1c(C)nc2ncnn2c1N1CCC(C(=O)NCc2ccc3c(c2)OCO3)CC1 | -0.715 |
| COc1ccccc1/C=C(\NC(=O)c1ccc(OC)c(OC)c1)C(=O)Nc1ccc([N+](=O)[O-])cc1 | 0.43 |
| O=C(CSc1nnc(CNc2ccc(F)cc2)o1)N1CCN(C(=O)c2ccco2)CC1 | 0.487 |
| Cc1cc(C)nc(SCC(=O)Nc2ccc(S(=O)(=O)NCCO)cc2)n1 | -0.145 |
| COc1ccc(-n2c(-c3ccc(F)cc3)cnc2SCC(=O)NCc2ccco2)cc1 | -0.275 |
| CCn1c(CNc2ccc(Cl)cc2)nnc1SCC(=O)NCc1ccccc1 | -0.546 |
| CC1(C)CC(=O)C2=C(C1)OC(N)=C(C#N)C21C(=O)N2CCCc3cccc1c32 (centres undefined) | -0.0681 |
| COc1ccccc1NC(=O)c1cnc(Nc2ccccc2OC)c2ccccc12 | -0.375 |
| CCC(C)NCCCCOc1ccc(Br)cc1 (centres undefined) | 0.51 |
